Assay results taken from PubChem BioAssay AID1234 (University of Pittsburgh Molecular Library Screening Center, 2008).
Some of the results follow. Shown are side measurements of this screen, not its main read-out; they come without a call.

Test: compounds producing H2O2 with reducing agent – biochemical, 10-point concentration response, NIH library profiling, artefact control for MLSCN library redox annotation, dose response (AID 1234)
Conditions: DTT-dependent redox cycling H2O2, phenol red-HRP absorbance; H2O2 generation; at 50 µM; stronger effect = higher value

Row | SMILES | activation
1 | Cc1nc2c(=O)n(C)c(=O)nc-2n(C)n1 | 115%
2 | CCn1nc(/C=C/c2ccccc2)nc2c(=O)n(C)c(=O)nc1-2 | 0.26%
3 | CCCCn1c(NC(=O)c2ccco2)c(C(=O)OCC)c2nc3ccccc3nc21 | 7.8%
4 | CCn1nc(-c2ccccc2)nc2c(=O)n(C)c(=O)nc1-2 | 113%
5 | O=C1C(=O)c2ccccc2-c2ccccc21 | 110%
6 | Cc1cccnc1NC1=NCC(C)S1 (configuration not stated) | -1.49%
7 | CCCCn1c(NS(=O)(=O)c2ccccc2)c(C(=O)OCC)c2nc3ccccc3nc21 | 122%
